{"source": "PubChem BioAssay (NCI)", "experiment_in_all_cases": "inhibition of tumour cell growth, NCI panel, 48 h", "key": {"CAKI-1 renal": {"tested_on": "CAKI-1 renal"}, "EKVX NSCLC": {"tested_on": "EKVX NSCLC"}, "HL-60(TB) leukemia": {"tested_on": "HL-60(TB) leukemia"}, "IGROV1 ovarian": {"tested_on": "IGROV1 ovarian"}, "KM12 colon": {"tested_on": "KM12 colon"}, "LOX IMVI melanoma": {"tested_on": "LOX IMVI melanoma"}, "MOLT-4 leukemia": {"tested_on": "MOLT-4 leukemia"}, "NCI-H226 lung": {"tested_on": "NCI-H226 lung"}, "NCI-H23 lung": {"tested_on": "NCI-H23 lung"}, "NCI/ADR-RES ovarian": {"tested_on": "NCI/ADR-RES ovarian"}, "OVCAR-4 ovarian": {"tested_on": "OVCAR-4 ovarian"}, "OVCAR-5 ovarian": {"tested_on": "OVCAR-5 ovarian"}, "SR leukemia": {"tested_on": "SR leukemia"}, "SW-620 colon": {"tested_on": "SW-620 colon"}, "HS 578T breast": {"tested_on": "HS 578T breast"}, "K-562 leukemia": {"tested_on": "K-562 leukemia"}, "MDA-N": {"tested_on": "MDA-N"}, "RPMI-8226 leukemia": {"tested_on": "RPMI-8226 leukemia"}, "SNB-78 CNS": {"tested_on": "SNB-78 CNS"}, "786-0 renal": {"tested_on": "786-0 renal"}, "DU-145 prostate": {"tested_on": "DU-145 prostate"}, "MCF7 breast": {"tested_on": "MCF7 breast"}, "COLO 205 colon": {"tested_on": "COLO 205 colon"}, "SF-295 CNS": {"tested_on": "SF-295 CNS"}}, "note": "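Where inhibition never reached the appropriate level, the endpoint shown equals the highest concentration tested. Otherwise, values were interpolated linearly from a five-concentration, 48-hour dose response in 96-well plates. GI50 marks 50% less growth.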 Not every entry of the source has a single result; some have several. This is not the full list of results. The source may hold further records. For part of these data: The tests behind the records often covered other concentration ranges, which the source does not state; a value can be the end of its range. For part of these data: Values given together are repeats (runs, samples, wells, individuals or studies). Marks in square brackets tell the records apart. The letters are not those of the source and start again with each entry.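 TGI marks complete inhibition of growth.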", "data": [{"smiles": "CC(C)=CC(=O)OC1C2C(C)=CC(=O)C(O)C2(C)C2C3(O)OCC24C(CC(=O)OC14)C(C)C3O", "note": "(stereo not drawn)", "values": [{"measurement": "TGI", "setting": "CAKI-1 renal", "result": "> 100 µM [1 test] and 792 nM, 1.59 µM [mean of 4 tests]"}, {"measurement": "GI50", "setting": "EKVX NSCLC", "result": "1.11 µM [1 test] and 23.1 nM [mean of 5 tests]"}, {"measurement": "TGI", "setting": "EKVX NSCLC", "result": "453 nM, 6.35 µM, 78.8 nM"}, {"measurement": "TGI", "setting": "HL-60(TB) leukemia", "result": "7.8 nM and 200 nM"}, {"measurement": "TGI", "setting": "IGROV1 ovarian", "result": "61.5 nM, > 100 µM, 56.7 nM"}, {"measurement": "TGI", "setting": "KM12 colon", "result": "62 nM, > 100 µM, 54.7 nM"}, {"measurement": "TGI", "setting": "LOX IMVI melanoma", "result": "6.82 nM and 200 nM"}, {"measurement": "TGI", "setting": "MOLT-4 leukemia", "result": "4.56 nM and 1.47 µM"}, {"measurement": "TGI", "setting": "NCI-H226 lung", "result": "28.4 nM, 4.82 µM, 40.9 nM"}, {"measurement": "TGI", "setting": "NCI-H23 lung", "result": "18 nM, 33.9 nM, 431 nM"}, {"measurement": "TGI", "setting": "NCI/ADR-RES ovarian", "result": "304 nM, 60.9 µM, 27.8 µM"}, {"measurement": "TGI", "setting": "OVCAR-4 ovarian", "result": "43.5 nM, 1.59 µM, 56.2 nM"}, {"measurement": "TGI", "setting": "OVCAR-5 ovarian", "result": "26.8 nM, 79.4 nM, 3.08 µM"}, {"measurement": "TGI", "setting": "SR leukemia", "result": "15.2 nM and > 100 µM"}, {"measurement": "TGI", "setting": "SW-620 colon", "result": "115 nM, 1.32 µM, 342 nM"}]}, {"smiles": "Cc1c(-c2ccc(-c3ccccc3F)cc2)nc2ccc(F)cc2c1C(=O)O", "values": [{"measurement": "GI50", "setting": "HL-60(TB) leukemia", "result": "72.1 nM [1 test] and 1.46 µM [mean of 4 tests]"}, {"measurement": "GI50", "setting": "HS 578T breast", "result": "134 nM [1 test] and 5.4 µM [mean of 2 tests]"}, {"measurement": "TGI", "setting": "HS 578T breast", "result": "13.4 µM, 185 µM, 240 µM"}, {"measurement": "GI50", "setting": "K-562 leukemia", "result": "49.3 nM [1 test] and 889 nM [mean of 4 tests]"}, {"measurement": "TGI", "setting": "MDA-N", "result": "90.3 µM and 999 µM"}, {"measurement": "TGI", "setting": "RPMI-8226 leukemia", "result": "80.7 µM, 192 µM, 868 µM"}, {"measurement": "TGI", "setting": "SNB-78 CNS", "result": "304 µM [1 test] and 28.7 µM [mean of 3 tests]"}, {"measurement": "GI50", "setting": "SR leukemia", "result": "22.7 nM and 500 nM"}, {"measurement": "TGI", "setting": "SR leukemia", "result": "158 µM and 5 mM"}]}, {"smiles": "CCCC(=O)Nc1cc(/C=C/C(=O)N2C[C@@H]3C[C@]34C2=CC(=O)c2[nH]cc(C)c24)n(C)c1", "values": [{"measurement": "TGI", "setting": "786-0 renal", "result": "2.67 µM and 253 nM"}, {"measurement": "TGI", "setting": "DU-145 prostate", "result": "478 nM and 21.4 µM"}, {"measurement": "TGI", "setting": "EKVX NSCLC", "result": "5.77 µM and 561 nM"}, {"measurement": "TGI", "setting": "LOX IMVI melanoma", "result": "3.62 µM and 212 nM"}, {"measurement": "TGI", "setting": "MCF7 breast", "result": "25 µM and 1.43 µM"}, {"measurement": "TGI", "setting": "OVCAR-5 ovarian", "result": "25 µM and 429 nM"}]}, {"smiles": "CCS(=O)(=O)c1cccc(-c2cc(C(=O)NC3CCN(C)CC3)c(C)c3[nH]c4ncc(C)cc4c23)c1", "values": [{"measurement": "TGI", "setting": "COLO 205 colon", "result": "1.37 µM [sample A, mean of 2 tests] and 119 nM [sample B, mean of 2 tests]"}]}, {"smiles": "CN1C2C=CC(=O)C1C(C#N)C2", "note": "(stereo not drawn)", "values": [{"measurement": "GI50", "setting": "OVCAR-5 ovarian", "result": "4.18 µM [sample A, 1 test] and > 100 µM [sample B, 1 test]"}, {"measurement": "GI50", "setting": "SF-295 CNS", "result": "> 100 µM [sample A, 1 test] and 689 nM [sample B, 1 test]"}]}]}
